# The list shows a part of the results.
# B1: GS7807H-bfa-490-18-490 (Bacteroides fragilis) (protein)
# chain: GNLEEMNIDPDNATQTHPKLLLTQICMNAFKRGTDGMYATKKVIQADGESADQYYKWTRGSFGYYDNLRNVQKMGEEAERVNAPVYTALTKFFRAYYFYELTLRFGDIPYSQALKGEKEEIYTPEYDAQEDVFAGILQELREADEILANDASVIDGDIIYNGNSTQWRKLINSFRLKVLMTLSNHTTVGNINIASEFKNIATNSPLMNSLADNGQLVYLDQQGNRYPQFNAQWSGYYMDDTFIQRMRERRDPRLFIFSAQTNKGKTEGKPIDDFSSYEGGDPAAPYSDAIIKVSEGTISPINDRFRTDPIVEPTMLMGYAELQQILAEAVVRGWISGNAQTYYEKGIRASFSFYETHAKDYAGYLNENAVAQYLKEPLVDFTQASGTEEQIERIIMQKYLVTFYQGNWDSFYEQLRTGYPDFRRPAGTEIPKRWMYPQGEYDNNGTNVETAITRQFGAGNDKINQATWWQKKS
# Columns and labels:
# Test in all cases: glycan array binding signal (z-score within array); higher = stronger binding
# Settings in all cases: glycan notation: IUPAC condensed, linker removed
# [1] = target: Fuc(a1-2)[Gal(a1-4)]Gal(b1-4)GlcNAc
# How it was run: (§1)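 The binding signal is a Z-score computed within each array and averaged over linkers. Arrays of the same protein sequence at different concentrations or buffers were also averaged together. Data originate from 3228 arrays in the Consortium for Functional Glycomics database, kept only where the protein sequence was available.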
# [2] = target: Fuc(a1-2)[GalNAc(a1-3)]Gal
# How it was run: as §1
# [3] = target: Fuc(a1-2)[GalNAc(a1-3)]Gal(b1-3)GalNAc(a1-3)[Fuc(a1-2)]Gal(b1-4)GlcNAc
# How it was run: as §1
# [4] = target: Fuc(a1-2)[GalNAc(a1-3)]Gal(b1-3)GalNAc(b1-3)Gal(a1-4)Gal(b1-4)Glc
# How it was run: as §1
# [5] = target: Fuc(a1-2)[GalNAc(a1-3)]Gal(b1-3)GlcNAc
# How it was run: as §1
# [6] = target: Fuc(a1-2)[GalNAc(a1-3)]Gal(b1-3)GlcNAc(b1-2)Man(a1-3)[Fuc(a1-2)[GalNAc(a1-3)]Gal(b1-3)GlcNAc(b1-2)Man(a1-6)]Man(b1-4)GlcNAc(b1-4)GlcNAc
# How it was run: as §1
# [7] = target: Fuc(a1-2)[GalNAc(a1-3)]Gal(b1-3)GlcNAc(b1-2)Man(a1-3)[Fuc(a1-2)[GalNAc(a1-3)]Gal(b1-3)GlcNAc(b1-2)Man(a1-6)]Man(b1-4)GlcNAc(b1-4)[Fuc(a1-6)]GlcNAc
# How it was run: as §1
# [8] = target: Fuc(a1-2)[GalNAc(a1-3)]Gal(b1-3)GlcNAc(b1-3)GalNAc
# How it was run: as §1
# [9] = target: Fuc(a1-2)[GalNAc(a1-3)]Gal(b1-3)GlcNAc(b1-6)GalNAc
# How it was run: as §1
# [10] = target: Fuc(a1-2)[GalNAc(a1-3)]Gal(b1-4)Glc
# How it was run: as §1
# [11] = target: Fuc(a1-2)[GalNAc(a1-3)]Gal(b1-4)GlcNAc
# How it was run: as §1
# [12] = target: Fuc(a1-2)[GalNAc(a1-3)]Gal(b1-4)GlcNAc(b1-2)Man
# How it was run: as §1
# [13] = target: Fuc(a1-2)[GalNAc(a1-3)]Gal(b1-4)GlcNAc(b1-2)Man(a1-3)[Fuc(a1-2)[GalNAc(a1-3)]Gal(b1-4)GlcNAc(b1-2)Man(a1-6)]Man(b1-4)GlcNAc(b1-4)GlcNAc
# How it was run: as §1
# [14] = target: Fuc(a1-2)[GalNAc(a1-3)]Gal(b1-4)GlcNAc(b1-2)Man(a1-3)[Fuc(a1-2)[GalNAc(a1-3)]Gal(b1-4)GlcNAc(b1-2)Man(a1-6)]Man(b1-4)GlcNAc(b1-4)[Fuc(a1-6)]GlcNAc
# How it was run: as §1
# [15] = target: Fuc(a1-2)[GalNAc(a1-3)]Gal(b1-4)GlcNAc(b1-3)Gal(b1-4)GlcNAc
# How it was run: as §1
# [16] = target: Fuc(a1-2)[GalNAc(a1-3)]Gal(b1-4)GlcNAc(b1-3)Gal(b1-4)GlcNAc(b1-3)Gal(b1-4)GlcNAc
# How it was run: as §1
# [17] = target: Fuc(a1-2)[GalNAc(a1-3)]Gal(b1-4)GlcNAc(b1-3)GalNAc
# How it was run: as §1
# [18] = target: Fuc(a1-2)[GalNAc(a1-3)]Gal(b1-4)GlcNAc(b1-3)[Fuc(a1-2)[GalNAc(a1-3)]Gal(b1-4)GlcNAc(b1-6)]GalNAc
# How it was run: as §1
# [19] = target: Fuc(a1-2)[GalNAc(a1-3)]Gal(b1-4)GlcNAc(b1-6)GalNAc
# How it was run: as §1
# [20] = target: Fuc(a1-2)[GalNAc(a1-3)]Gal(b1-4)[Fuc(a1-3)]GlcNAc
# How it was run: as §1
# [21] = target: Fuc(a1-2)[GalNAc(a1-3)]Gal(b1-4)[Fuc(a1-3)]GlcNAc(b1-3)GalNAc
# How it was run: as §1
# [22] = target: Fuc(a1-2)[GalNAc(a1-4)]Gal(b1-4)GlcNAc
# How it was run: as §1
# [23] = target: Fuc(a1-2)[GalNAc(b1-3)]Gal
# How it was run: as §1
# [24] = target: Fuc(a1-3)GlcNAc
# How it was run: as §1
# [25] = target: Fuc(a1-3)[Gal(b1-4)]Glc6S
# How it was run: as §1
# [26] = target: Fuc(a1-3)[Gal(b1-4)]GlcNAc
# How it was run: as §1
# [27] = target: Fuc(a1-3)[Gal(b1-4)]GlcNAc(b1-2)Man
# How it was run: as §1
# [28] = target: Fuc(a1-3)[Gal(b1-4)]GlcNAc(b1-2)Man(a1-3)[Fuc(a1-3)[Gal(b1-4)]GlcNAc(b1-2)Man(a1-6)]Man(b1-4)GlcNAc(b1-4)GlcNAc
# How it was run: as §1
# [29] = target: Fuc(a1-3)[Gal(b1-4)]GlcNAc(b1-2)Man(a1-3)[Fuc(a1-3)[Gal(b1-4)]GlcNAc(b1-2)Man(a1-6)]Man(b1-4)GlcNAc(b1-4)[Fuc(a1-6)]GlcNAc
# How it was run: as §1
# [30] = target: Fuc(a1-3)[Gal(b1-4)]GlcNAc(b1-3)Gal(b1-3)[Fuc(a1-4)]GlcNAc
# How it was run: as §1
# [31] = target: Fuc(a1-3)[Gal(b1-4)]GlcNAc(b1-3)Gal(b1-4)[Fuc(a1-3)]GlcNAc
# How it was run: as §1
# [32] = target: Fuc(a1-3)[Gal(b1-4)]GlcNAc(b1-3)Gal(b1-4)[Fuc(a1-3)]GlcNAc(b1-3)Gal(b1-4)[Fuc(a1-3)]GlcNAc
# How it was run: as §1
# [33] = target: Fuc(a1-3)[Gal(b1-4)]GlcNAc(b1-3)GalNAc
# How it was run: as §1
# [34] = target: Fuc(a1-3)[Gal(b1-4)]GlcNAc(b1-6)GalNAc
# How it was run: as §1
# [35] = target: Fuc(a1-3)[Gal(b1-4)]GlcNAc(b1-6)[Gal(b1-3)GlcNAc(b1-3)]Gal(b1-4)Glc
# How it was run: as §1
# [36] = target: Fuc(a1-3)[Gal(b1-4)]GlcNAc6S
# How it was run: as §1
# [37] = target: Fuc(a1-3)[Gal3S(b1-4)]Glc
# How it was run: as §1
# [38] = target: Fuc(a1-3)[Gal3S(b1-4)]GlcNAc
# How it was run: as §1
binder,measurement,setting,value
B1,glycan array binding signal (z-score),[1],-0.516
same,glycan array binding signal (z-score),[2],-0.611
same,glycan array binding signal (z-score),[3],-0.514
same,glycan array binding signal (z-score),[4],0.107
same,glycan array binding signal (z-score),[5],0.788
same,glycan array binding signal (z-score),[6],-0.562
same,glycan array binding signal (z-score),[7],-0.169
same,glycan array binding signal (z-score),[8],0.075
same,glycan array binding signal (z-score),[9],-0.435
same,glycan array binding signal (z-score),[10],-0.704
same,glycan array binding signal (z-score),[11],-0.543
same,glycan array binding signal (z-score),[12],-0.197
same,glycan array binding signal (z-score),[13],-0.125
same,glycan array binding signal (z-score),[14],0.217
same,glycan array binding signal (z-score),[15],-0.224
same,glycan array binding signal (z-score),[16],0.699
same,glycan array binding signal (z-score),[17],-0.444
same,glycan array binding signal (z-score),[18],-0.146
same,glycan array binding signal (z-score),[19],-0.479
same,glycan array binding signal (z-score),[20],0.449
same,glycan array binding signal (z-score),[21],0.984
same,glycan array binding signal (z-score),[22],0.324
same,glycan array binding signal (z-score),[23],1.14
same,glycan array binding signal (z-score),[24],0.007
same,glycan array binding signal (z-score),[25],1.17
same,glycan array binding signal (z-score),[26],-0.003
same,glycan array binding signal (z-score),[27],-0.436
same,glycan array binding signal (z-score),[28],-0.314
same,glycan array binding signal (z-score),[29],1.38
same,glycan array binding signal (z-score),[30],-0.645
same,glycan array binding signal (z-score),[31],0.068
same,glycan array binding signal (z-score),[32],0.166
same,glycan array binding signal (z-score),[33],-0.221
same,glycan array binding signal (z-score),[34],0.004
same,glycan array binding signal (z-score),[35],0.603
same,glycan array binding signal (z-score),[36],-0.707
same,glycan array binding signal (z-score),[37],0.171
same,glycan array binding signal (z-score),[38],1.21

# From the supplement of paper PMC8728848
